# Results as given in PubChem BioAssay (EPA / NIEHS).
# For some assays here: Shown are results outside the selection of hits, which stands elsewhere. This is a selection; strong and weak results do not stand in their true shares. Records with an inconclusive call do not appear. Activity calls are given as the source filed them. How the source made its calls, unless noted: active means hit-call score of the fitted dose curve at least 0.9, where 1 is the maximum; inactive means score below 0.9.
# Legend:
# [1] = read-out: Interferon-gamma inducible Protein 10 (IP10), CXCL10 (gene 3627); assay: BSK_BE3C_IP10: BioMAP Diversity Plus: BE3C Assay for Interferon-gamma inducible Protein 10 (IP10) Biomarker Activity (AID 2283034); details: actives raise or lower the signal; primary human bronchial epithelial cells
# Method in brief: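 Chemical is dosed onto human lung bronchial epithelial primary cells, cultures are incubated 24 h, and IP-10 is then quantified by ELISA. Gain or loss of signal is fitted in both directions relative to DMSO.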
# [2] = read-out: Monokine induced gamma interferon (MIG), CXCL9 (gene 4283); assay: BSK_CASM3C_MIG: BioMAP Diversity Plus: CASM3C Assay for Monokine induced gamma interferon (MIG) Biomarker Activity (AID 2283048); details: actives raise or lower the signal; primary human coronary artery smooth muscle cells;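 further: MIG protein level measured by ELISA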
# [3] = read-out: flavin-containing dimethylaniline monooxygenases 3 (FMO3), FMO3 (gene 2328); assay: LTEA_HepaRG_FMO3: Life Technologies and Expression Analysis (LTEA) Assay for flavin-containing dimethylaniline monooxygenases 3 (FMO3) using HepaRG (AID 2283453); details: actives raise or lower the signal; mRNA level, 48 h
# Method in brief: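 Differentiated HepaRG cells in serum-free induction medium, exposed 48 h in duplicate to 8 half-log concentrations up to 100 uM in 0.5% DMSO. FMO3 mRNA by qRT-PCR, normalized to ACTB, GAPDH, POLR2A; bidirectional fit vs DMSO.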
# [4] = read-out: Cytochrome P450 3A7 (Homo sapiens) (UniProt P24462); assay: LTEA_HepaRG_CYP3A7: Life Technologies and Expression Analysis (LTEA) Assay for CYP3A7 using HepaRG (AID 2283492); details: actives raise or lower the signal; mRNA level, 48 h
# Chain of UniProt P24462 (P24462 whole entry, looked up): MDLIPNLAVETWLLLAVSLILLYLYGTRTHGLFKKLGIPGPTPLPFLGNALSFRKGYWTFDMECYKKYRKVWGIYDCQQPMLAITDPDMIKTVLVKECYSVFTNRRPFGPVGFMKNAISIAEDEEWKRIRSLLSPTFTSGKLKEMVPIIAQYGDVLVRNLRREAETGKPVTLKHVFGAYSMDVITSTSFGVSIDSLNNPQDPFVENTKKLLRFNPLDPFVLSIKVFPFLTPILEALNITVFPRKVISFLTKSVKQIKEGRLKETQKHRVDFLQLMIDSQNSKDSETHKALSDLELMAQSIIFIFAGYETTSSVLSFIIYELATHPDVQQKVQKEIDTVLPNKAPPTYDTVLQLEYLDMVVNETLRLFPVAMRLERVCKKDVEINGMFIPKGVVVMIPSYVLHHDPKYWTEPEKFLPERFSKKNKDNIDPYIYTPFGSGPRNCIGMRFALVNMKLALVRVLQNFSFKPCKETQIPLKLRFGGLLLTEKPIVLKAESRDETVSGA
# Method in brief: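 Cells were thawed, plated, cultured 48 h, then treated for a further 48 h with chemicals (eight-point half-log series from 100 uM, 0.5% DMSO). RNA was isolated and CYP3A7 expression quantified by qRT-PCR normalised to ACTB, GAPDH and POLR2A.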
# [5] = read-out: UDP glucuronosyltransferase (UGT1A1), UGT1A1 (gene 54658); assay: LTEA_HepaRG_UGT1A1: Life Technologies and Expression Analysis (LTEA) Assay for UDP glucuronosyltransferase (UGT1A1) using HepaRG (AID 2283538); details: actives raise or lower the signal; mRNA level, 48 h
# Method in brief: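 Readout is UGT1A1 transcript level by qRT-PCR, normalized to three housekeeping genes, after 48 h chemical treatment of HepaRG cells. Concentrations ran from 100 uM down in half-log steps with 0.5% DMSO, and gain or loss relative to DMSO was fitted.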
# [6] = TOX21_p53_BLA_p4_viability: Viability Assessment in the Tox21 HCT-116 p53 Agonism Beta-lactamase Assay, Phase 4 (AID 2283597; active means hit-call score of the fitted dose curve at least 0.9, where 1 is the maximum;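 further: hits lower the luminescence signal meaning cytotoxicity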)
# Method in brief: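 Compound exposure of HCT116 cells lasts 16 h at 37C, 5% CO2, with DMSO stocks diluted 217-fold. Cellular ATP is then quantified by CellTiter-Glo luminescence after 30 min at room temperature.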
# [7] = molecular target: Cellular tumor antigen p53 (Homo sapiens) (UniProt P04637); assay: TOX21_p53_BLA_p4_ratio: Tox21 HCT-116 p53 Agonism Beta-lactamase Assay, Ratio, Phase 4 (AID 2283601; active means hit-call score of the fitted dose curve at least 0.9, where 1 is the maximum)
# Chain of UniProt P04637 (P04637 whole entry, looked up): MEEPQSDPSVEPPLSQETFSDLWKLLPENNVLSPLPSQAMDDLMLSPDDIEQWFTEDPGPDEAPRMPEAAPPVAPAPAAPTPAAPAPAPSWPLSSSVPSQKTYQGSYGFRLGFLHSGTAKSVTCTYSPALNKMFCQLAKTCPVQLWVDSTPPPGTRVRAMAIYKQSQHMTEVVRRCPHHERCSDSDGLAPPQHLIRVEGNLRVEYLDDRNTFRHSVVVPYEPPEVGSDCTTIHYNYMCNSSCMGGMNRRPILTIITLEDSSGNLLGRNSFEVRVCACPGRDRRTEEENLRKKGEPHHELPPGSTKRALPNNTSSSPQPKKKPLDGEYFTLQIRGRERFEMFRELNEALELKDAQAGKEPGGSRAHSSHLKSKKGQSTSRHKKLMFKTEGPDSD
# Method in brief: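 HCT-116 p53 beta-lactamase reporter cells (4000/well) preincubated 5 h, then compound (217-fold dilution of DMSO stock) for 16 h at 37C. CCF4-AM substrate added 2 h at room temperature; 460/530 nm emission ratio fitted upward versus DMSO.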
# [8] = read-out: urokinase plasminogen activator (uPA), PLAU (gene 5328); assay: BSK_BE3C_uPA: BioMAP Diversity Plus: BE3C Assay for urokinase plasminogen activator (uPA) Biomarker Activity (AID 2283038); details: actives raise or lower the signal; primary human bronchial epithelial cells
# Method in brief: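 Measured by ELISA: uPA from human primary bronchial epithelial cells 24 h after chemical treatment. Values derive from bidirectional curve fitting with DMSO serving as negative control. Total protein by SRB staining in parallel wells flagged overt cytotoxicity.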
# [9] = read-out: Transforming growth factor beta 1 (TGFb1), TGFB1 (gene 7040); assay: BSK_BE3C_TGFb1: BioMAP Diversity Plus: BE3C Assay for Transforming growth factor beta 1 (TGFb1) Biomarker Activity (AID 2283036); details: actives raise or lower the signal; primary human bronchial epithelial cells
# Method in brief: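 Primary human lung bronchial epithelial cells; compound exposure 24 h; TGF-b1 by ELISA; bidirectional fit, DMSO baseline. Parallel SRB total-protein staining for cytotoxicity.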
# [10] = read-out: Vascular cell adhesion molecule 1 (VCAM1), VCAM1 (gene 7412); assay: BSK_CASM3C_VCAM1: BioMAP Diversity Plus: CASM3C Assay for Vascular cell adhesion molecule 1 (VCAM1) Biomarker Activity (AID 2283055); details: actives raise or lower the signal; primary human coronary artery smooth muscle cells;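 further: VCAM-1 protein level quantified by ELISA on the cells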
# [11] = read-out: Vascular cell adhesion molecule 1 (VCAM1), VCAM1 (gene 7412); assay: BSK_4H_VCAM1: BioMAP Diversity Plus: 4H Assay for Vascular cell adhesion molecule 1 (VCAM1) Biomarker Activity (AID 2283033); details: actives raise or lower the signal; primary human endothelial cells (HUVEC);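 further: cell-surface VCAM-1 protein measured by ELISA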
# Method in brief: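 ELISA read-out of VCAM-1 on human umbilical vein endothelium 24 hours after chemical dosing; gain or loss of signal was fitted relative to DMSO, with sulforhodamine B staining of parallel cultures flagging overt cytotoxicity.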
# [12] = read-out: Pselectin, SELP (gene 6403); assay: BSK_4H_Pselectin: BioMAP Diversity Plus: 4H Assay for Pselectin Biomarker Activity (AID 2283026); details: actives raise or lower the signal; primary human endothelial cells (HUVEC)
# Method in brief: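 ELISA read-out of P-selectin on human umbilical vein endothelium after 24 h of dosing. Values derive from bidirectional fitting relative to DMSO. Parallel SRB protein staining flagged overt cytotoxicity.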
# [13] = read-out: Monokine induced gamma interferon (MIG), CXCL9 (gene 4283); assay: BSK_hDFCGF_MIG: BioMAP Diversity Plus: hDFCGF Assay for Monokine induced gamma interferon (MIG) Biomarker Activity (AID 2283063); details: actives raise or lower the signal; primary human foreskin fibroblasts
# Method in brief: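 MIG signal, determined by ELISA, reflects 24 h chemical exposure of human skin primary fibroblasts. DMSO serves as negative control and baseline.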
# [14] = read-out: E-selectin (Homo sapiens) (UniProt P16581); assay: BSK_SAg_Eselectin: BioMAP Diversity Plus: SAg Assay for Eselectin Biomarker Activity (AID 2283091); details: actives raise or lower the signal; primary human HUVEC with PBMC
# Chain of UniProt P16581 (P16581 whole entry, looked up): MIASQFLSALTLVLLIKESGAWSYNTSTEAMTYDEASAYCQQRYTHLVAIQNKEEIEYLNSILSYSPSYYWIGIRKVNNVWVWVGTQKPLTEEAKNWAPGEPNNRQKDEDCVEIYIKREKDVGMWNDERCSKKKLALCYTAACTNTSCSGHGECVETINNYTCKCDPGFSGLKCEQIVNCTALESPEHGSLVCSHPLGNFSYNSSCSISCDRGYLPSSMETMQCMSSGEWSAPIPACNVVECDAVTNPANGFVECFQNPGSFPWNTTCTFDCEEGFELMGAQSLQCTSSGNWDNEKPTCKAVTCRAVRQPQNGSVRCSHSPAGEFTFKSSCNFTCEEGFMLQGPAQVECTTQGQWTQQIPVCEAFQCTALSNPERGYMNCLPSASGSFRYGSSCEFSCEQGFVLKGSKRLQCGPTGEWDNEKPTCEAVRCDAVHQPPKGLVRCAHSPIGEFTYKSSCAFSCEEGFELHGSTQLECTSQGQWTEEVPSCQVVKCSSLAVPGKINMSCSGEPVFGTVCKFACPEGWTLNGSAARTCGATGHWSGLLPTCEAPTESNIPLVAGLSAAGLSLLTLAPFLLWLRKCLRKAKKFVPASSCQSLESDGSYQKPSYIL
# Method in brief: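 Primary human endothelial cells and peripheral blood mononuclear cells were co-cultured and exposed to chemical for 24 hours. E-selectin levels were then quantified by ELISA, with bidirectional curve fitting normalised to DMSO controls.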
# [15] = molecular target: human Adrenergic, Alpha 2A Receptor (Adra2A), ADRA2A (gene 150) (UniProt P08913); assay: NVS_GPCR_hAdra2A: NovaScreen (NVS) G Protein-Coupled Receptor Assay for human Adrenergic, Alpha 2A Receptor (Adra2A) (AID 2283257; active means hit-call score of the fitted dose curve at least 0.9, where 1 is the maximum)
# Chain of UniProt P08913 (P08913 whole entry, looked up): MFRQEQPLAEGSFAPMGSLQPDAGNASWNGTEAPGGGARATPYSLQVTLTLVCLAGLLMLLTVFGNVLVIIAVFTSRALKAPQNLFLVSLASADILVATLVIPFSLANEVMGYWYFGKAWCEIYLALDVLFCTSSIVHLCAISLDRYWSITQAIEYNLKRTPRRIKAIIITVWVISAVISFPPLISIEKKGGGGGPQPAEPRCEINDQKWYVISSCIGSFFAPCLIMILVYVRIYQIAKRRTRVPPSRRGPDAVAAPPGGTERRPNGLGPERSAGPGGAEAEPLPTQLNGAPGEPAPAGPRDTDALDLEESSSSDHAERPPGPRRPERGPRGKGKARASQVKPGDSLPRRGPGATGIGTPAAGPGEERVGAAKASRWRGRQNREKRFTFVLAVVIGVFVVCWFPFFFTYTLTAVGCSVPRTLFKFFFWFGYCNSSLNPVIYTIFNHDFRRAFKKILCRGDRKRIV
# Method in brief: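 Radioligand filter-binding was run on HT29-derived membranes, cell-free, read by scintillation counting 1 h after dosing. Primary screening was in duplicate at 25 uM, with concentration series in follow-up. Loss of signal versus DMSO indicates displacement.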
# [16] = molecular target: Retinoic acid receptor RXR-alpha (Homo sapiens) (UniProt P19793); assay: OT_NURR1_NURR1RXRa_1440: Odyssey Thera (OT) 24-hour HEK293T Protein Complementation Assay for Nurr1/retinoid X receptor (RXR) (AID 2283386; active means hit-call score of the fitted dose curve at least 0.9, where 1 is the maximum)
# Chain of UniProt P19793 (P19793 whole entry, looked up, the tested form may be a part): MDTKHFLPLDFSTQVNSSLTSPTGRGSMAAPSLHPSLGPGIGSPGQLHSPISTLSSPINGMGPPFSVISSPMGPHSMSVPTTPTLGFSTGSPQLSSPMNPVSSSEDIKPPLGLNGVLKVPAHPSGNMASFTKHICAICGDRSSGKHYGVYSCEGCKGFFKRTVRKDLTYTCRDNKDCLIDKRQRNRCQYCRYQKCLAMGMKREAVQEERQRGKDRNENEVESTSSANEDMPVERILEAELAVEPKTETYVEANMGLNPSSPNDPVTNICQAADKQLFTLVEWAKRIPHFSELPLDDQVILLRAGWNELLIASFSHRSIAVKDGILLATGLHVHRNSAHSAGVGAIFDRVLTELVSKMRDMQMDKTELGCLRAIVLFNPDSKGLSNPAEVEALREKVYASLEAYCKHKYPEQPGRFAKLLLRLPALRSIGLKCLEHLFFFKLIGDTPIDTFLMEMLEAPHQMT
# Method in brief: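 Interaction of Nurr1 with RXRα brings fused reporter fragments together in human HEK293T cells, restoring a functional reporter. Fluorescence intensity is measured 24 h after chemical treatment, and values are analysed in the positive direction against DMSO.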
# [17] = LTEA_HepaRG_LDH_cytotoxicity: Cytotoxicity Assessment in the Life Technologies and Expression Analysis (LTEA) Assay (AID 2283563; active means hit-call score of the fitted dose curve at least 0.9, where 1 is the maximum;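 further: LDH activity released into spent culture medium as a marker of cell death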)
# Method in brief: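 Human HepaRG hepatic cells are treated with test chemicals for 48 h at up to 100 uM in 0.5% DMSO. Cytotoxicity is scored from medium LDH against the vehicle control.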
# [18] = read-out: Interleukin-6 (IL6), IL6 (gene 3569); assay: BSK_CASM3C_IL6: BioMAP Diversity Plus: CASM3C Assay for Interleukin-6 (IL6) Biomarker Activity for (AID 2283040); details: actives raise or lower the signal; primary human coronary artery smooth muscle cells
# [19] = read-out: Tissue plasminogen activator (tPA), PLAT (gene 5327); assay: BSK_BE3C_tPA: BioMAP Diversity Plus: BE3C Assay for Tissue plasminogen activator (tPA) Biomarker Activity (AID 2283041); details: actives raise or lower the signal; primary human bronchial epithelial cells;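 on outcome: tPA level quantified by ELISA one day after compound addition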
# Method in brief: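 Primary human lung bronchial epithelial cultures receive test chemical; after 24 h, tPA is quantified by ELISA, and gain or loss of signal is fitted bidirectionally relative to DMSO baseline.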
# [20] = read-out: Transforming growth factor beta 1 (TGFb1), TGFB1 (gene 7040); assay: BSK_KF3CT_TGFb1: BioMAP Diversity Plus: KF3CT Assay for Transforming growth factor beta 1 (TGFb1) Biomarker Activity (AID 2283072); details: actives raise or lower the signal; primary human keratinocytes with fibroblasts
# Method in brief: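 Primary human skin cells (keratinocytes, foreskin fibroblasts) were co-cultured, exposed to test chemical and sampled at 24 h. TGF-b1 levels were measured by ELISA and fitted bidirectionally relative to DMSO.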
# [21] = molecular target: bovine Gamma-Aminobutyric Acid Type A Receptor Agonist (GABAR Agonist), GABRA1 (gene 780973) (UniProt P08219); assay: NVS_LGIC_bGABAR_Agonist: NovaScreen (NVS) Ligand-Gated Ion Channel Assay for bovine Gamma-Aminobutyric Acid Type A Receptor Agonist (GABAR Agonist) (AID 2283338; active means hit-call score of the fitted dose curve at least 0.9, where 1 is the maximum)
# Chain of UniProt P08219 (P08219 whole entry, looked up): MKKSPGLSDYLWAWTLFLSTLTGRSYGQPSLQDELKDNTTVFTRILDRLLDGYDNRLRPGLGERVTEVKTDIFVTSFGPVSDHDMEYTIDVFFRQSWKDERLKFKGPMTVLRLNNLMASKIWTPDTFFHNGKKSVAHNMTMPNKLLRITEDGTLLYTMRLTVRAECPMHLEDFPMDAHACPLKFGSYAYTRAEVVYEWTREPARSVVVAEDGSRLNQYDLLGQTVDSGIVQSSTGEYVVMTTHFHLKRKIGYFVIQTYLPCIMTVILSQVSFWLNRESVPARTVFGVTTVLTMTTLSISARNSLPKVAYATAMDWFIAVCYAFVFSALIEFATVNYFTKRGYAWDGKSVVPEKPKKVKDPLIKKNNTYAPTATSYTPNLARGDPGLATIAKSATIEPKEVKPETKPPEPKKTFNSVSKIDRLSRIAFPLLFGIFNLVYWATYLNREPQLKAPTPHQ
# [22] = read-out: Bcl-2 (BAD) gene, BAD (gene 572); assay: LTEA_HepaRG_BAD: Life Technologies and Expression Analysis (LTEA) Assay for Bcl-2 (BAD) gene using HepaRG (AID 2283469); details: actives raise or lower the signal; mRNA level, 48 h
# Method in brief: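 Differentiated HepaRG cells were exposed in duplicate in 0.5% DMSO for 48 h to eight-point half-log concentrations up to 100 uM. BAD mRNA was measured by Fluidigm TaqMan qRT-PCR, normalized to ACTB, GAPDH and POLR2A, and fitted bidirectionally against DMSO.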
# [23] = CCTE_Shafer_MEA_acute_cross_correlation_area: CCTE's Neural Acute Assay for Area of Cross Correlation, Shafer Lab (AID 2284024)
# Method in brief: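 Acute exposure of mature rat cortical networks (day 13 or 15 post-plating) to 0.03-40 uM compound. Spontaneous spiking on MEA, 40 min pre- and post-dose at 37 C.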
# [24] = read-out: Macrophage colony-stimulating factor (MCSF), CSF1 (gene 1435); assay: BSK_CASM3C_MCSF: BioMAP Diversity Plus: CASM3C Assay for Macrophage colony-stimulating factor (MCSF) Biomarker Activity (AID 2283044); details: actives raise or lower the signal; primary human coronary artery smooth muscle cells;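 further: M-CSF protein amount quantified by ELISA after 24 h exposure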
# [25] = CEETOX_H295R_CORTIC: CeeTox H295R High-throughput Steroidogenesis Assay for Corticosterone (CORTIC) (AID 2283437); details: actives raise or lower the signal;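 further: corticosterone secreted into medium quantified by mass spectrometry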
# Method in brief: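 H295R adrenal cells prestimulated 48 hours with 10 uM forskolin, then exposed 48 hours to chemical in 0.1% DMSO. Corticosterone in medium measured by HPLC-MS/MS after MTBE extraction; MTT viability in the same wells; bidirectional fit versus DMSO.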
structure (smiles),measurement,setting,value
O=C(O)c1ccccc1,outcome,[1],inactive
same,outcome,[2],inactive
same,outcome,[3],inactive
same,outcome,[4],inactive
same,outcome,[5],inactive
same,outcome,[6],inactive
same,outcome,[7],inactive
O=C(O)Cc1cc(I)c(Oc2cc(I)c(O)c(I)c2)c(I)c1,AC50,[8],active: 17.2 µM
CCOC(=O)C(C)Oc1ccc(Oc2cnc3cc(Cl)ccc3n2)cc1 (stereo unspecified),outcome,[9],inactive
same,outcome,[10],inactive
COc1ccc([N+](=O)[O-])cc1N,outcome,[11],inactive
NC(=Nc1ccccc1)Nc1ccccc1,outcome,[12],inactive
same,outcome,[13],inactive
same,outcome,[14],inactive
same,AC50,[15],active: 17.3 µM
same,AC50,[16],active: 9.57 µM
same,AC50,[17],active: 59.2 µM
COC(=O)c1ccc(O)cc1,outcome,[18],inactive
CC(=O)Nc1ccc(C(=O)CCl)cc1,outcome,[19],inactive
same,outcome,[20],inactive
CN(C)c1ccc(C(=C2C=CC(=[N+](C)C)C=C2)c2ccc(N(C)C)cc2)cc1,AC50,[19],active: 1.19 µM
same,AC50,[21],active: 4.96 µM
same,outcome,[22],inactive
same,AC50,[23],active: 0.298 µM
CN(C)c1ccc(Cc2ccc(N(C)C)cc2)cc1,outcome,[24],inactive
same,outcome,[25],inactive
